# US20240417452A1 (BIOTHEUS, published 2024)
# T1: mouse MSLN (mMSLN, Uniprot ID: Q61468) on CHO cells (mouse, UniProt Q61468 298-600)
# T1 construct: whole, on cells; also called CHO-mMSLN cells
# T1 sequence (looked up): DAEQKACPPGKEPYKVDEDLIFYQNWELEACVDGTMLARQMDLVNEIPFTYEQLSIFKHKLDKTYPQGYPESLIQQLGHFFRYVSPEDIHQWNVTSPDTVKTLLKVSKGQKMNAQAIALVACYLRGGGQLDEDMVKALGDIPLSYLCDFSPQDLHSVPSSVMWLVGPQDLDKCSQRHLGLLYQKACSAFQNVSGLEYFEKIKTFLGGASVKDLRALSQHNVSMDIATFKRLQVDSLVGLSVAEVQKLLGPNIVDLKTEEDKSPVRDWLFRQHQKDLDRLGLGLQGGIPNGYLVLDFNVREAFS
# What was measured:
# [1] = target: T2, human MSLN (Uniprot ID: Q13421) overexpressed on CHO cells (human, UniProt Q13421 296-598); assay: flow cytometry on CHO-hMSLN cells
# T2 construct: whole, on cells; also called CHO-hMSLN cells; CHO-MSLN cells
# [2] = target: T1, mouse MSLN (mMSLN, Uniprot ID: Q61468) …; assay: flow cytometry on CHO-mMSLN cells
# [3] = target: T3, monkey MSLN (cyMSLN, Uniprot ID: F6Q1U7) on CHO cells (monkey); assay: flow cytometry on CHO-cyMSLN cells
# T3 construct: whole, on cells; also called CHO-cyMSLN cells
# [4] = target: T4, human MSLN (Uniprot ID: Q13421), soluble protein (human, UniProt Q13421 296-580); assay: BLI (ForteBio), method of Example 3
# T4 construct: also called mesothelin
# [5] = target: T4, human MSLN (Uniprot ID: Q13421), …; assay: blocking ELISA: human MSLN coated, serially diluted antibody, then 1 ug/mL Biotin-CA125 as competitor, SA-HRP
# [6] = target: T2, human MSLN (Uniprot ID: Q13421) …; assay: flow cytometry on CHO-hMSLN cells, anti-human IgG-Fc PE
# [7] = target: T4, human MSLN (Uniprot ID: Q13421), …; assay: BLI (ForteBio), antibody on AHQ sensor, 100 nM human MSLN in solution, 1:1 model
Binder,EC50 [1],EC50 [2],EC50 [3],Kd [4],koff [4],kon [4],EC50 [5],EC50 [6],Kd [7],koff [7],kon [7]
"humanized anti-MSLN nanobody HZ-P-YE-17-02 (VHH fused to human IgG1 Fc) (Fc fusion, also called HZ-YE-17-02) QVQLVESGGGVVQPGGSLRLSCATSGTIFSRNGMGWFRQAPGKQRELVARILNDGTTMYADSVKGRFTISRDNSKNTVYLQMNSLKPEDTAVYYCGYSDYRGTDYWGQGTQVTVSS[human IgG1 Fc with changes omitted]",0.551 nM,7.29 nM,0.63 nM,2.2 nM,0.000888 s⁻¹,403000 M⁻¹ s⁻¹,2.63 nM,–,–,–,–
"anti-MSLN nanobody YE-17 (VHH fused to human IgG1 Fc) (Fc fusion, No linker between VHH and Fc is stated; also called anti-MSLN antibody YE-17) QVQLQESGGGLVQPGGSLRLSCATSGTIFSRNGMGWFRQAPGEQRELVARILNDGTTMYADSVKGRFTISRDNAKNTVLLQMNSLKPEDTAVYYCGYSDYRGTDYWGQGTQVTVSS[human IgG1 Fc with changes omitted]",0.305 nM,6.31 nM,0.716 nM,–,0.00059 s⁻¹,421000 M⁻¹ s⁻¹,5.96 nM,0.965 nM,0.188 nM,0.000104 s⁻¹,550000 M⁻¹ s⁻¹
"humanized anti-MSLN nanobody HZ-P-YE-17-01 (VHH fused to human IgG1 Fc) (Fc fusion, also called HZ-YE-17-01) QVQLVESGGGVVQPGGSLRLSCATSGTIFSRNGMGWFRQAPGEQRELVARILNDGTTMYADSVKGRFTISRDNSKNTVLLQMNSLKPEDTAVYYCGYSDYRGTDYWGQGTQVTVSS[human IgG1 Fc with changes omitted]",0.477 nM,13 nM,1.24 nM,0.807 nM,0.000325 s⁻¹,402000 M⁻¹ s⁻¹,3.34 nM,–,–,–,–

# Continued by falling EC50 [1], values first:
EC50 [1],EC50 [2],EC50 [3],Kd [4],koff [4],kon [4],EC50 [5],EC50 [6],Kd [7],koff [7],kon [7],Binder
0.34 nM,–,1.01 nM,19.3 nM,0.00636 s⁻¹,329000 M⁻¹ s⁻¹,3.23 nM,–,–,–,–,"humanized anti-MSLN nanobody HZ-P-YE-17-04 (VHH fused to human IgG1 Fc) (Fc fusion, also called HZ-YE-17-04) QVQLVESGGGVVQPGGSLRLSCATSGTIFSRNGMGWFRQAPGKGLELVARILNDGTTMYADSVKGRFTISRDNSKNTVYLQMNSLRAEDTAVYYCGYSDYRGTDYWGQGTQVTVSS[human IgG1 Fc with changes omitted]"
0.241 nM,22.4 nM,0.708 nM,19.1 nM,0.0064 s⁻¹,336000 M⁻¹ s⁻¹,4.75 nM,–,–,–,–,"humanized anti-MSLN nanobody HZ-P-YE-17-03 (VHH fused to human IgG1 Fc) (Fc fusion, also called HZ-YE-17-03) QVQLVESGGGVVQPGGSLRLSCATSGTIFSRNGMGWFRQAPGKGLELVARILNDGTTMYADSVKGRFTISRDNSKNTVYLQMNSLKPEDTAVYYCGYSDYRGTDYWGQGTQVTVSS[human IgG1 Fc with changes omitted]"
